Test results taken from patent US12116397B2, “IL-IR-I binding polypeptide” (Swedish Orphan Biovitrum AB (publ), dated 2024).

Biological target: human IL-1R-I on Normal Human Dermal Fibroblasts (NHDF) cells (human, UniProt P14778)
Test: cell-based or functional assay

IC50 of inhibition of IL-1β induced IL-6 release in NHDF cells: 0.07 nM
B1: PSI0538 (Fc fusion)
chain: AEAKYAKELEAIQMEIFHLPNLTRRQYTAFIRKLLDDPSQSSELLSEAKKLSESQAPKASGGGGSGGGGS[sequence of human IgG1 Fc omitted]
